# Results from PubChem BioAssay AID463173 (ICCB-Longwood Screening Facility, Harvard Medical School, 2010).
# Out of some 52,000 compounds screened, about 1,700 (3.3%) were called active. Cut-off read from the data, not from the text of the source: active = survival mostly below about 52% (no sharp cut-off); inactive = mostly above about 56%. The list shows a part of the results.
# System: Wild type
# Test: growth inhibition of S. aureus wild type versus tarO mutant, primary screen, teichoic acid synthesis inhibitors, RN4220, OD600 (AID 463173)
# Conditions: S. aureus RN4220 wild type/DeltatarO growth, OD600, 18 h, hits give low values, screened at 18.75 µg/mL (by protocol)
row,Structure (SMILES),survival
1,COC(=O)c1c(NC(=O)COc2c(C)cccc2C)sc2c1CCCC2,active: 6%
2,CC1CCN(S(=O)(=O)c2ccc(C(=O)Nc3nc4ccc(F)cc4s3)cc2)CC1,inactive: 64%
3,O=C(CSc1ncc(-c2ccc(F)cc2)n1Cc1ccco1)OC1CCCCC1,inactive: 122%
4,CCC1C=CCC2C(=O)N(CC(=O)NCCC3=CCCCC3)C(=O)C12 (stereo unspecified),inactive: 108%
5,CCOc1ccccc1NC(=O)c1cc2cc(C)ccc2n1C,inactive: 87%
6,COc1cccc(CNC(=O)c2ccc3c(c2)N(C)C(=O)C2CCCCN32)c1 (stereo unspecified),inactive: 68%
7,COc1ccc(-c2nc(SCC(=O)Nc3ccc4c(c3)OCO4)c(-c3ccccc3)[nH]2)cc1,inactive: 73%
8,CCc1ccc(NC(=O)C2CCC(CNS(=O)(=O)c3cccs3)CC2)cc1 (stereo unspecified),inactive: 110%
9,COc1ccccc1NC(=O)C1=C(C)Nc2nc(-c3ccco3)nn2C1c1ccccc1 (stereo unspecified),inactive: 74%
10,Cc1ccccc1NC(=O)c1c(NC(=O)c2ccncc2)sc2c1CCC(C(C)(C)C)C2 (stereo unspecified),inactive: 91%
11,CCOC(=O)c1c(NC(=O)c2cc(-c3ccc(Cl)cc3)on2)sc2c1CCCC2,inactive: 75%
12,Cc1ccc(CNc2oc(-c3ccc(COc4ccc(Cl)cc4)o3)nc2C#N)cc1,inactive: 95%
13,COc1ccc(Nc2nc3c(S(=O)(=O)c4ccc(Br)cc4)nnn3c3ccsc23)c(OC)c1,inactive: 70%
14,CC1CCN(c2cc3c(cc2F)c(=O)c(S(=O)(=O)c2ccc(Cl)cc2)cn3C)CC1,inactive: 71%
15,COc1ccccc1OCC(=O)Nc1ccc(S(=O)(=O)N2CCN(C)CC2)cc1,inactive: 112%
16,CCC(=O)N1CCc2cc(Br)cc(S(=O)(=O)N3CCC(C(=O)N(CC)CC)CC3)c21,inactive: 90%
17,CCn1cc(C(=O)N2CCN(c3cc(Cl)ccc3C)CC2)c(=O)c2cc(S(=O)(=O)N3CCOCC3)ccc21,inactive: 86%
18,CC1CCCN(CC(O)CN)C1 (stereo unspecified),inactive: 104%
19,CCOc1ccc(-c2cc3nc(C4CCN(C(=O)OC(C)(C)C)CC4)c(C(=O)Nc4ccc(C)c(F)c4)cn3n2)cc1,inactive: 86%

row,Structure (SMILES),survival
1,CNC(=S)N1C2CCC1CC(NC(=O)NC13CC4CC(CC(C4)C1)C3)C2 (stereo unspecified),inactive: 118%
2,Cc1ccccc1OCc1cc(=O)n2c(-c3ccccc3)csc2n1,inactive: 78%
3,CC(C)CCNC(=O)c1cn(C)c2ccc(S(=O)(=O)N3CCCC3)cc2c1=O,inactive: 130%
4,COc1ccc2c(c1)CC(C(=O)Nc1cc(OC)c(OC)c(OC)c1)CO2 (stereo unspecified),inactive: 84%
5,Cc1cccc(CCNC(=O)CCc2c(C)nc3c(c(C)nn3-c3ccccc3)c2C)c1,inactive: 63%
6,CCOC(=O)c1cc2c(=O)n3ccccc3nc2n(C(C)C)c1=NC(=O)c1c(-c2c(F)cccc2Cl)noc1C,inactive: 138%
7,CCc1cccc(C)c1NC(=O)c1cc(S(=O)(=O)N2CCN(c3ccccc3)CC2)ccc1F,inactive: 73%
8,COc1ccc(OC)c(CNc2ncnc3onc(C)c23)c1,inactive: 152%
9,Clc1ccc(CNc2ncnc3onc(-c4ccc(Cl)cc4)c23)cc1,inactive: 110%
10,CC1=CCC2C(=O)N(C3CCCCC3)C(=O)C2C1 (stereo unspecified),inactive: 122%
11,CN(C)c1ccc(C(=O)NCc2ccc3c(c2)CCN3C(=O)c2ccc(Cl)cc2)cc1,inactive: 135%
12,COc1ccc(Cl)cc1NC(=O)CCn1nc(C)cc1C,inactive: 60%
13,CN1C(=O)c2ccccc2Sc2ccc(NC(=O)N3CCN(c4cccc(Cl)c4)CC3)cc21,inactive: 83%
14,COc1ccc(C(=O)NCc2ccc3c(c2)CCN3C(=O)c2ccc(Cl)cc2)c(OC)c1,inactive: 78%
15,COc1ccc(OC(=O)c2ccc3snnc3c2)cc1,inactive: 106%
16,COc1cc(OC)cc(C(=O)Nc2cccc(-c3cn4ccsc4n3)c2)c1,active: 1%
17,N#Cc1cc2cc3c(cc2nc1N1CCCN(C(=O)c2ccccc2)CC1)OCO3,inactive: 103%
18,CCC1CN(C(=O)N2CCC(C(=O)NCCC3=CCCCC3)CC2)c2ccccc2O1 (stereo unspecified),inactive: 90%
19,CCC(Cc1ccccc1)NC(=O)c1cccc(Nc2nc3ccccc3nc2-n2nc(C)cc2C)c1 (stereo unspecified),inactive: 78%

row,Structure (SMILES),survival
1,CC(C)OCCCn1c(SCc2ccccc2Cl)nc2c(sc3ccccc32)c1=O,inactive: 159%
2,CCOc1ccc(NC(=O)CSc2cn(CC(=O)N3CCOCC3)c3ccccc23)cc1,inactive: 95%
3,CCC1CCCCN1C(=O)Cn1c(=O)n(-c2ccc(Cl)c(Cl)c2)c(=O)c2c(C)c(C(=O)N(C)C)sc21 (stereo unspecified),inactive: 79%
4,CCOc1ccc(NC(=O)C2CCC(CNS(=O)(=O)c3ccc4c(c3)CCCC(=O)N4)CC2)cc1 (stereo unspecified),inactive: 60%
5,COc1ccc(CCNC(=O)c2cc(=O)[nH]c3ccc(S(=O)(=O)N4CCCCC4)cc23)cc1OC,inactive: 71%
6,CC(=O)Nc1c(C)nn(-c2ccccc2)c1N1CCC(C(=O)NCc2cccc(F)c2)CC1,active: 1%
7,Cc1ccc(N(CC(=O)N2CCN(c3cccc(C)c3C)CC2)S(=O)(=O)c2c(C)nn(C)c2C)cc1,inactive: 69%
8,CCN(c1cc(C)cc(C)c1)S(=O)(=O)c1nnc(NC(=O)c2ccccc2C)s1,inactive: 50%
9,CCN(CC)c1nn2c(=O)c(C(=O)NCc3ccccc3Br)cnc2s1,inactive: 90%
10,Cn1nc(C(=O)NCc2ccccc2Cl)c2c1-c1ccccc1SC2,inactive: 88%
11,Cc1cccc(NC(=O)c2ccc(Cn3nc(N4CCN(c5ccccc5)CC4)ccc3=O)o2)c1C,inactive: 73%
12,O=C(NCCc1ccc(Cl)cc1)c1cc2c(s1)-c1ccccc1OC2,inactive: 105%
13,COc1cc(OC)c2c(C)c(CC(=O)NCc3ccccc3OC)c(=O)oc2c1,inactive: 87%
14,CCOc1ccc(NC(=O)N2CCN(C(=O)c3nsc4ccccc34)CC2)cc1,inactive: 78%
15,CCCC(c1nnnn1Cc1ccc(OC)cc1)N1CCC(C(N)=O)CC1 (stereo unspecified),inactive: 100%
16,CC1(C)CC(=O)C(C=NCc2ccccc2)=C(O)C1,inactive: 113%
17,O=c1c2ccccc2[nH]c(=S)n1C1CCCC1,inactive: 107%
18,COc1ccc(-c2cc(C(F)(F)F)nc(SCC(=O)N(C)Cc3ccccc3)n2)cc1,active: -1%
